Test results taken from PubChem BioAssay AID624202 (National Center for Advancing Translational Sciences (NCATS), 2012).
In all, about 380,000 compounds went through this assay and about 4,000 (1.1%) were called active. This list was built around the results that the source calls inconclusive (neither active nor inactive); the mix of calls is not that of the screen. The call rests on the fitted dose curve; in most records, active means well fitted activation curve with a large enough effect; inconclusive means small, poorly fitted or top-dose-only effect; inactive means no such curve, though single readings can be large or run the other way. Potencies beside an inconclusive call are fits to weak or partial responses and may not hold up.
Potency means the concentration at half of the fitted maximal effect; tags describe the fitted curve by direction and shape.

Assay: qHTS Assay to Identify Small Molecule Activators of BRCA1 Expression; further: nearly all actives have a fitted effect of over 80% in size
Settings: MCF7-BRCA1-FFLuc reporter, luminescence, 48 h; activation: at 46.1 µM (top of the series), scaled: vehicle 0%, 10 µM genistein 100% unless noted
In short: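 MCF7-BRCA1-FFLuc cells, 2000/well in phenol-red-free MEM, attached 2 h then treated 48 h at 37 C. Luciferase luminescence read 15 min after reagent; normalized to genistein maximum activation (10microM) and DMSO, concentration-response fitted.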
For `CC(C)CCOCc1nc2sc3c(c2c(=O)[nH]1)CCC(C)C3` (configuration not stated), the Potency was active: 12.6 µM. In the case of `CCOc1ccc(-c2nnc(SCC(=O)N3CCNC3=O)o2)cc1`, the Potency is reported as inconclusive: 1.26 µM [activator, full curve, poor fit]. For `CC(C)(C)Nc1ncnc2c1cnn2-c1ccccc1`, the Potency was inconclusive: 1.26 µM [activator, full curve, poor fit]. In the case of `O=C(Nc1cccc(NC(=S)NC(=O)c2cccs2)c1)c1ccccc1`, the “activation” value is reported as inactive: -14.8%. In the case of `C/C(NC(=O)c1cccs1)=C1\C(=O)C[C@@H]2[C@H]1C2(C)C`, the Potency is reported as inconclusive: 12.6 µM [activator, partial curve, poor fit]. For `CC(C)[C@H](NC(=O)c1ccccc1)C(=O)OCC(=O)c1ccc2c(c1)NC(=O)CO2`, the “activation” value was inactive: 3.6%. In the case of `CCn1c(C)nc2cc(C(=O)NN=Cc3ccccc3OC(F)F)ccc21`, the Potency is reported as inconclusive: 10 µM [activator, partial curve, poor fit]. For `O=C(ONC1=NCCCCC1)c1cccc([N+](=O)[O-])c1`, the “activation” value was inactive: -47.7%. In the case of `Cc1ccc(S(=O)(=O)NCc2ccncc2)c(C)c1C`, the “activation” value is reported as inactive: -27.8%. For `CC(=O)Nc1cccc(NC(=O)c2cc3ccccc3o2)c1`, the Potency was active: 8.91 µM. For `O=C(CCc1ccccc1)Nc1ccc(N2CCOCC2)cc1`, the Potency was inconclusive: 35.5 µM [activator, single point]. With `O=C(OCc1cccc(F)c1)c1ccc2c(c1)-c1ccccc1C2=O` the Potency was active: 11.2 µM. For `CC(=O)c1ccc(N2CCN(C(=O)Nc3ccc(Cl)cc3)CC2)cc1`, the “activation” value was inactive: 3.29%. With `CCCCn1nnnc1C1(C)CCC(=O)N1CCc1ccc(OC)c(OC)c1` (configuration not stated) the “activation” value was inactive: 2.43%. With `O=C(COc1ccccc1)Nc1ccc(-c2nnc(-c3ccco3)o2)cc1` the Potency was inconclusive: 0.631 µM [activator, full curve, poor fit]. For `Cc1ccc(CONC(=O)c2ccc(C)cc2)cc1`, the Potency was inconclusive: 3.98 µM [activator, full curve, poor fit]. With `C/C(=N\NC(=O)c1ccccn1)c1ccc(Cl)cc1` the Potency was inconclusive: 0.631 µM [activator, full curve, poor fit]. For `c1ccc(Oc2cc(-c3ccccc3)ncn2)cc1`, the Potency was active: 11.2 µM. In the case of `Cc1ccc(N(CC(=O)Nc2c(C)cccc2C)S(C)(=O)=O)cc1`, the “activation” value is reported as inactive: -3.09%. For `CSCC(=O)Nc1nc(-c2ccc3c(c2)OCCO3)cs1`, the Potency was inconclusive: 6.31 µM [activator, partial curve, poor fit]. In the case of `CCOC(=O)Nc1nnc(-c2ccc(OC)cc2)s1`, the Potency is reported as inconclusive: 14.1 µM [activator, partial curve, poor fit]. In the case of `COc1ccccc1C(NC(=O)C1CCN(CCOc2ccc(Cl)cc2Cl)CC1)c1ccccn1` (configuration not stated), the “activation” value is reported as inactive: -11%. With `O=C(NCC1CCCO1)c1cc2ccccc2cc1O` (configuration not stated) the Potency was inconclusive: 10 µM [activator, partial curve, poor fit]. In the case of `Cc1ccc(OCCCCCCN2CCNCC2)c(Br)c1`, the Potency is reported as inconclusive: 0.501 µM [activator, full curve, poor fit]. With `CC(C)(C)CC(=O)Nc1cccc(-c2cn3cccnc3n2)c1` the Potency was active: 8.91 µM. With `O=S1(=O)CCN=C2SC3=C(CCCC3)N21` the “activation” value was inactive: -10.7%. In the case of `O=C(c1ccccc1)c1cccc(NC(=O)c2ccco2)c1`, the Potency is reported as active: 11.2 µM. In the case of `C#CCNC(=O)C[C@@H]1C[C@@]2(C(=O)OC)CCCCC=C2N(CCC2=CCCCC2)C1=O`, the “activation” value is reported as inactive: -12.7%. For `COc1ccccc1NC(=O)Nc1nc2ccc(S(N)(=O)=O)cc2s1`, the Potency was active: 3.98 µM. For `CCCC(=O)n1nc(-c2ccc(C)cc2)nc1NCc1ccco1`, the Potency was inconclusive: 7.94 µM [activator, partial curve, poor fit]. With `Clc1c(CSc2nc3ccccc3o2)nc2sccn12` the Potency was inconclusive: 1.26 µM [activator, full curve, poor fit]. For `O=C(NC12CC3CC(CC(C3)C1)C2)c1ccc(-c2cccc(Cl)c2)o1`, the Potency was inconclusive: 2.51 µM [activator, full curve, poor fit]. In the case of `CCc1ccc(Nc2n[n+](-c3ccccc3)c(-c3c(Cl)cccc3Cl)s2)cc1`, the “activation” value is reported as inactive: -76.6%. With `O=C(Nc1ccccc1Cl)OCc1cncs1` the Potency was inconclusive: 20 µM [activator, single point]. In the case of `c1ccc(COc2ccc(-c3csnn3)cc2)cc1`, the Potency is reported as active: 5.62 µM. In the case of `CN=c1scc(C)n1/N=C/c1ccc(O)cc1`, the Potency is reported as inconclusive: 1.41 µM [activator, full curve, poor fit]. In the case of `O=C(Nc1nc(-c2cccs2)cs1)c1ccco1`, the Potency is reported as inconclusive: 1.58 µM [activator, partial curve, poor fit]. In the case of `O=C(Nc1ccccn1)C(=O)Nc1ccccn1`, the Potency is reported as inconclusive: 7.08 µM [activator, partial curve, poor fit]. With `Nc1ncnc2c(C3OC(CO)C(O)C3O)scc12` (configuration not stated) the activation was inconclusive: -86.1% [activator]. In the case of `COc1ccc(OC)c(C2c3c(-c4ccc(Br)cc4)n[nH]c3C(=O)N2c2ccc(Cl)cc2)c1` (configuration not stated), the “activation” value is reported as inactive: -71.1%. In the case of `Cc1ccccc1C(=O)Nc1cc(NC(=O)c2ccccc2C)cc(C(=O)O)c1`, the “activation” value is reported as inactive: 5.3%. With `COc1ccccc1OCc1nc2ccccc2[nH]1` the Potency was inconclusive: 3.16 µM [activator, partial curve, poor fit]. For `COc1ccc(C(=O)Nc2cnc3ccccn3c2=O)cc1`, the Potency was active: 4.47 µM. In the case of `CCCOc1ccc(C(=O)Nc2ccc(S(=O)(=O)NC3=NCCCCC3)cc2)cc1`, the “activation” value is reported as inactive: -39.8%. For `COc1ccc(Nc2c3c(nc4ccccc24)CCCC3)cc1OC`, the “activation” value was inactive: -17%. In the case of `CCSc1nsc(NC(=O)Nc2cccc(C(C)=O)c2)n1`, the Potency is reported as inconclusive: 3.16 µM [activator, partial curve, poor fit]. For `CC(C)CCNC(=O)c1cccc(S(=O)(=O)N2CCc3ccccc32)c1`, the “activation” value was inactive: -46.9%. With `O=C(Nc1nc2ccc(F)cc2s1)C1CCCO1` (configuration not stated) the Potency was inconclusive: 1.26 µM [activator, partial curve, poor fit]. With `CC(C)Sc1ncnc2c1cnn2-c1ccccc1` the Potency was inconclusive: 2.51 µM [activator, full curve, poor fit]. With `Cc1ccccc1OCC(=O)NCCC1=CCCCC1` the “activation” value was inactive: 3.12%. In the case of `O=C(Nc1ccc2c(c1)OCO2)c1ccc(CN2CCOCC2)cc1`, the Potency is reported as inconclusive: 15.8 µM [activator, single point]. For `CCOc1ccc(C(=O)Nc2cccc(C(=O)O)c2C)cc1Cl`, the activation was inconclusive: -74.2% [activator]. For `COc1cccc(C(=O)OCC(=O)Nc2sc3c(c2C(N)=O)CCC3)c1O`, the “activation” value was inactive: -30%. With `CCCc1cc2c(=O)c(-c3ccccn3)coc2cc1OC` the Potency was active: 5.62 µM. With `CC(=O)Nc1ccc(-c2nc3ccccc3o2)cc1` the Potency was inconclusive: 1.26 µM [activator, full curve, poor fit]. With `CC(C)(C)C(=O)NC1CCN(CC(=O)Nc2ccc3c(c2)OCO3)CC1` the “activation” value was inactive: 21%. With `CCCCc1ccc(NC(=O)CSc2nc(=O)n(CCN(C)C)c3c2CCC3)cc1` the “activation” value was inactive: -73.7%. With `O=C(NCC1CCCO1)c1c(O)c2c([nH]c1=O)CCCC2` (configuration not stated) the Potency was inconclusive: 7.94 µM [activator, partial curve, poor fit]. With `CC(=O)NC(CC(=O)NC(C)c1ccc(Cl)cc1Cl)c1ccccc1` (configuration not stated) the Potency was inconclusive: 31.6 µM [activator, single point]. For `Cc1ccc(O)c(CNc2nc3ccccc3[nH]2)c1`, the Potency was inconclusive: 17.8 µM [activator, partial curve, poor fit]. In the case of `COC(=O)c1cccc(CN2C(=O)C(C)Sc3cc(Cl)ccc32)c1` (configuration not stated), the Potency is reported as active: 5.01 µM. In the case of `CN(C)C=NC(=O)c1cc(C(=O)c2ccc(C(C)(C)C)cc2)c[nH]1`, the Potency is reported as inconclusive: 1.41 µM [activator, partial curve, poor fit]. For `COc1cc(/C=C/c2sc3ccccc3[n+]2CCCS(=O)(=O)[O-])ccc1O`, the Potency was inconclusive: 15.8 µM [activator, single point]. With `CC1CCCC(NC(=O)c2ccc3c(c2)OCCO3)C1C` (configuration not stated) the Potency was active: 7.08 µM. For `Cn1c(SCc2ccccc2F)nnc1-c1cnccn1`, the Potency was inconclusive: 2 µM [activator, full curve, poor fit]. For `CCn1c(/C=C/c2c[nH]c3ccccc23)nc2ccccc2c1=O`, the Potency was inconclusive: 0.562 µM [activator, full curve, poor fit]. In the case of `CC(C)n1c(/C=C/c2ccccc2)nc2ccccc21`, the Potency is reported as active: 2.24 µM. With `COc1ccc(Cl)cc1NC(=S)NCCc1c[nH]c2ccccc12` the “activation” value was inactive: -47.3%. For `CN(C)/N=C/c1ccc(OS(=O)(=O)c2ccccc2)cc1`, the Potency was active: 10 µM. With `O=C(Nc1cccc(O)c1)c1ccc(NC(=O)C2CCCO2)cc1` (configuration not stated) the Potency was inconclusive: 10 µM [activator, partial curve, poor fit]. For `CN(N=O)c1ccc(/C=C/c2ccccc2)cc1`, the Potency was active: 5.62 µM. In the case of `Cc1ccc(C(=O)c2ccc(O)cc2)cc1C`, the Potency is reported as inconclusive: 22.4 µM [activator, single point]. In the case of `CCCc1ccc(-c2ccc(F)c(N)c2)nc1`, the activation is reported as inconclusive: -77.4% [activator]. With `O=C1OC(c2ccccc2)=C/C1=C/N1CCCCC1` the Potency was active: 3.98 µM. For `C/C(=N\NC(=O)c1ccc(Cl)cc1)c1cccc(NC(=O)c2cccnc2)c1`, the Potency was inconclusive: 11.2 µM [activator, partial curve, poor fit]. In the case of `CC(C)[C@@H](CO)NC(=O)c1ccc2c3n(nc2c1)-c1ccccc1CO3`, the Potency is reported as inconclusive: 2 µM [activator, partial curve, poor fit]. In the case of `Nc1ncccc1OCc1ccc(Br)cc1`, the Potency is reported as inconclusive: 1.58 µM [activator, full curve, poor fit].
